From patent publication US7595299B2, “Peptides as NS3-serine protease inhibitors of hepatitis C virus” (priority 2000, dated 2009)
pKi: −log10 of the molar value. Starred links: 1 amine or outer side, 2 acyl side, 3 side chain; linkers in the order of their positions; H or OH if unused. Non-standard residues stand in square brackets, D forms with d. Residues, ends and D or L forms follow the SMILES beside them. ξ: configuration not given here. *: point of attachment. X22 = O=C(C(N[*:1])c1ccc(Oc2ccccc2)cc1)[*:2]; Phe(4-Cl) = N[C@@H](Cc1ccc(Cl)cc1)C(=O)O; Phe(4-F) = N[C@@H](Cc1ccc(F)cc1)C(=O)O; Isobutyloxycarbonyl = CC(C)COC(=O)*; X4 = CCCC(N[*:1])C(=O)C(=O)[*:2]; X36 = O=C(O)C1C2CCC(C2)C1C(=O)*; AllylGly = C=CC[C@H](N)C(=O)O; X23 = C/C=C/CC(CC(=O)*)C(=O)O; ξNMePhg = CNC(C(=O)O)c1ccccc1; Chg = N[C@H](C(=O)O)C1CCCCC1; Phg = N[C@H](C(=O)O)c1ccccc1; X19 = CCCCC(CC(=O)*)C(=O)O; Boc = CC(C)(C)OC(=O)*; OBn = c1ccc(CO*)cc1; OtBu = CC(C)(C)O*

Molecular target: Recombinant heterodimeric HCV NS3/NS4A protease (strain 1a) (Hepatitis C virus genotype 1a, UniProt P27958)
Assay: biochemical
Conditions: HCV protease continuous assay, Table 1; read-out: Ki* Range
Procedure: Spectrophotometric Assay: Spectrophotometric assay for the HCV serine protease was performed on the inventive compounds by following the procedure described by R. Zhang et al, Analytical Biochemistry, 270 (1999) 268-275, the disclosure of which is incorporated herein by reference. The assay based on the proteolysis of chromogenic ester substrates is suitable for the continuous monitoring of HCV NS3 protease activity. The substrates were derived from the P side of the NS5A-NS5B junction sequence (Ac-DTEDVVX(Nva), where X=A or P) whose C-terminal carboxyl groups were esterified with one of four different chromophoric alcohols (3- or 4-nitrophenol, 7-hydroxy-4-methyl-coumarin, or 4-phenylazophenol). […] Materials and Methods:
Materials: Chemical reagents for assay related buffers were obtained from Sigma Chemical Company (St. Louis, Mo.). Reagents for peptide synthesis were from Aldrich Chemicals, Novabiochem (San Diego, Calif.), Applied Biosystems (Foster City, Calif.) and Perseptive Biosystems (Framingham, Mass.). Peptides were synthesized manually or on an automated ABI model 431A synthesizer (from Applied Biosystems). UV/VIS Spectrometer model LAMBDA 12 was from Perkin Elmer (Norwalk, Conn.) and 96-well UV plates were obtained from Corning (Corning, N.Y.). The prewarming block was from USA Scientific (Ocala, Fla.) and the 96-well plate vortexer was from Labline Instruments (Melrose Park, Ill.). A Spectramax Plus microtiter plate reader with monochrometer was obtained from Molecular Devices (Sunnyvale, Calif.).
Protein concentrations were determined by the Biorad dye method using recombinant HCV protease standards previously quantified by amino acid analysis. Prior to assay initiation, the enzyme storage buffer (50 mM sodium phosphate pH 8.0, 300 mM NaCl, 10% glycerol, 0.05% lauryl maltoside and 10 mM DTT) was exchanged for the assay buffer (25 mM MOPS pH 6.5, 300 mM NaCl, 10% glycerol, 0.05% lauryl maltoside, 5 μM EDTA and 5 μM DTT) utilizing a Biorad Bio-Spin P-6 prepacked column.
Substrate Synthesis and Purification: The synthesis of the substrates was done as reported by R. Zhang et al, (ibid.) and was initiated by anchoring Fmoc-Nva-OH to 2-chlorotrityl chloride resin using a standard protocol (K. Barlos et al, Int. J. Pept. Protein Res., 37 (1991), 513-520). The peptides were subsequently assembled, using Fmoc chemistry, either manually or on an automatic ABI model 431 peptide synthesizer. […] The combined filtrate and DCM wash was evaporated azeotropically (or repeatedly extracted by aqueous Na2CO3 solution) to remove the acid used in cleavage. The DCM phase was dried over Na2SO4 and evaporated.
The ester substrates were assembled using standard acid-alcohol coupling procedures (K. Holmber et al, Acta Chem. Scand., B33 (1979) 410-412). Peptide fragments were dissolved in anhydrous pyridine (30-60 mg/ml) to which 10 molar equivalents of chromophore and a catalytic amount (0.1 eq.) of para-toluenesulfonic acid (pTSA) were added. Dicyclohexylcarbodiimide (DCC, 3 eq.) was added to initiate the coupling reactions. […] Pyridine solvent was evaporated under vacuum and further removed by azeotropic evaporation with toluene. The peptide ester was deprotected with 95% TFA in DCM for two hours and extracted three times with anhydrous ethyl ether to remove excess chromophore. The deprotected substrate was purified by reversed phase HPLC on a C3 or C8 column with a 30% to 60% acetonitrile gradient (using six column volumes).

Compound | pKi
CCCC(NC(=O)[C@H](CC(C)C)NC(=O)[C@@H](NC(=O)OC(C)(C)C)C1CCCCC1)C(=O)C(=O)NCC(=O)NC(C(=O)OC)(c1ccccc1)c1ccccc1 (stereo partly shown) [Example 20] | < 6.00
CCCC(NC(=O)[C@H](Cc1ccc(F)cc1)NC(=O)[C@@H](NC(=O)OC(C)(C)C)C1CCCCC1)C(=O)C(=O)NCC(=O)N[C@H](C(=O)O)c1ccccc1 (stereo partly shown) [Example 21] (Boc-[Chg][Phe(4-F)][X4]G[Phg]-OH) | 6.00 to 7.00
CCCC(NC(=O)[C@H](Cc1ccc(Cl)cc1)NC(=O)[C@@H](NC(=O)OCC(C)C)C1CCCCC1)C(=O)C(=O)NCC(=O)N[C@H](C(=O)O)c1ccccc1 (stereo partly shown) [Example 22] (Isobutyloxycarbonyl-[Chg][Phe(4-Cl)][X4]G[Phg]-OH) | < 6.00
CCCC(NC(=O)[C@H](Cc1ccc(F)cc1)NC(=O)[C@@H](NC(=O)OCC(C)C)C1CCCCC1)C(=O)C(=O)NCC(=O)N[C@H](C(=O)O)c1ccccc1 (stereo partly shown) [Example 23] (Isobutyloxycarbonyl-[Chg][Phe(4-F)][X4]G[Phg]-OH) | < 6.00
C/C=C/CC(CC(=O)N[C@H](C(=O)N[C@@H](CC(C)C)C(=O)NC(CCC)C(=O)C(=O)NCC(=O)N[C@H](C(=O)OCc1ccccc1)c1ccccc1)C1CCCCC1)C(=O)O (stereo partly shown) [Example 24] (X23-[Chg]L[X4]G[Phg]-OBn) | 6.00 to 7.00
CCCCC(CC(=O)N[C@H](C(=O)N[C@@H](CC(C)C)C(=O)NC(CCC)C(=O)C(=O)NCC(=O)N[C@H](C(=O)O)c1ccccc1)C1CCCCC1)C(=O)O (stereo partly shown) [Example 25] (X19-[Chg]L[X4]G[Phg]-OH) | > 7.00
CCCC(NC(=O)[C@H](CC(C)C)NC(=O)[C@@H](NC(=O)OCC(C)C)C1CCCCC1)C(=O)C(=O)NCC(=O)NC(C(=O)NC1CCCCC1)c1ccc(Oc2ccccc2)cc1 (stereo partly shown) [Example 26] | < 6.00
CCCC(NC(=O)[C@H](CC(C)C)NC(=O)[C@@H](NC(=O)OCC(C)C)C1CCCCC1)C(=O)C(=O)NCC(=O)NC(C(=O)NC1CCCCC1)c1ccc(OCC)cc1 (stereo partly shown) [Example 27] | < 6.00
CCCC(NC(=O)[C@H](CC(C)C)NC(=O)[C@@H](NC(C)=O)C1CCCCC1)C(=O)C(=O)NCC(=O)NC(C(=O)NCC(=O)OC)c1ccc(Oc2ccccc2)cc1 (stereo partly shown) [Example 28] (Ac-[Chg]L[X4]G[X22]G-OMe) | 6.00 to 7.00
CCCC(NC(=O)[C@H](CC(C)C)NC(=O)[C@@H](NC(=O)OC(C)(C)C)C1CCCCC1)C(=O)C(=O)NCC(=O)N(C)C(C(=O)OC)c1ccccc1 (stereo partly shown) [Example 29] (Boc-[Chg]L[X4]G[ξNMePhg]-OMe) | < 6.00
CCCC(NC(=O)[C@H](CC(C)C)NC(=O)[C@@H](NC(=O)C1C2CCC(C2)C1C(=O)O)C1CCCCC1)C(=O)C(=O)NCC(=O)N[C@H](C(=O)O)c1ccccc1 (stereo partly shown) [Example 30] (X36-[Chg]L[X4]G[Phg]-OH) | 6.00 to 7.00
CC(C)COC(=O)N[C@H](C(=O)N[C@@H](CC(C)C)C(=O)NC(CC(C)C)[13C](=O)C(=O)NCC(=O)N[C@H](C(=O)O)c1ccccc1)C1CCCCC1 (stereo partly shown) [Example 32] | 6.00 to 7.00
CC(C)COC(=O)N[C@H](C(=O)N[C@@H](CC(C)C)C(=O)NC(CC(C)C)[13C](=O)C(=O)NCC(=O)N[C@H](C(=O)OC(C)(C)C)c1ccccc1)C1CCCCC1 (stereo partly shown) [Example 33] | < 6.00
C=CC[C@H](NC(=O)[C@@H](NC(=O)OCC(C)C)C1CCCCC1)C(=O)NC(CCC)C(=O)C(=O)NCC(=O)N[C@H](C(=O)O)c1ccccc1 (stereo partly shown) [Example 34] (Isobutyloxycarbonyl-[Chg][AllylGly][X4]G[Phg]-OH) | 6.00 to 7.00
C=CC[C@H](NC(=O)[C@@H](NC(=O)OCC(C)C)C1CCCCC1)C(=O)NC(CCC)C(=O)C(=O)NCC(=O)N[C@H](C(=O)OC(C)(C)C)c1ccccc1 (stereo partly shown) [Example 35] (Isobutyloxycarbonyl-[Chg][AllylGly][X4]G[Phg]-OtBu) | < 6.00
CC(C)COC(=O)N[C@H](C(=O)N[C@@H](CC(C)C)C(=O)NC(CSC(c1ccccc1)(c1ccccc1)c1ccccc1)C(=O)C(=O)NCC(=O)N[C@H](C(=O)OC(C)(C)C)c1ccccc1)C1CCCCC1 (stereo partly shown) [Example 36] | < 6.00
